# In the supplement of paper PMC8728848:
# The other results are listed elsewhere or left out.
# B1: Surfactant Protein D (Human); Neck + Carbohydrate Recognition Domain (NCRD) (Homo sapiens) (protein)
# chain: MLLFLLSALVLLTQPLGYLEAEMKTYSHRTMPSACTLVMCSSVESGLPGRDRDGREGPRGEKGDPGLPGAAGQAGMPGQAGPVGPKGDNGSVGEPGPKGDTGPSGPPGPPGVPGPAGREGALGKQGNIGPQGKPGPKGEAGPKGEVGAPGMQGSAGARGLAGPKGERGVPGERGVPGNTGAAGSAGAMGPQGSPGARGPPGLKGDKGIPGDKGAKGESGLPDVASLRQQVEALQGQVQHLQAAFSQYKKVELFPNGQSVGEKIFKTAQFVKPFTEAQLLCTQAGGQLASPRSAAENAALQQLVVAKNEAAFLSMTDSKTEGKFTYPTGESLVYSNWAPGEPNDDGGSEDCVEIFTNGKWNDAACGEKRLVVCEF
# How the values were obtained:
# Assay in all cases: glycan array binding signal (z-score within array); higher = stronger binding
# Conditions in all cases: glycan notation: IUPAC condensed, linker removed; mutation: R343A
# Gal(b1-3)GlcNAc = target: Gal(b1-3)GlcNAc
# Procedure, shortened: (§1)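 The binding signal is a Z-score computed within each array and averaged over linkers. Arrays of the same protein sequence at different concentrations or buffers were also averaged together. Data originate from 3228 arrays in the Consortium for Functional Glycomics database, kept only where the protein sequence was available.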
# [1] = target: Gal(b1-3)GlcNAc(b1-2)Man(a1-3)[Gal(b1-3)GlcNAc(b1-2)Man(a1-6)]Man(b1-4)GlcNAc(b1-4)GlcNAc
# Procedure, shortened: as §1
# [2] = target: Gal(b1-3)GlcNAc(b1-3)Gal(b1-3)GlcNAc
# Procedure, shortened: as §1
# [3] = target: Gal(b1-3)GlcNAc(b1-3)Gal(b1-4)Glc
# Procedure, shortened: as §1
# [4] = target: Gal(b1-3)GlcNAc(b1-3)Gal(b1-4)GlcNAc
# Procedure, shortened: as §1
# [5] = target: Gal(b1-3)[Fuc(a1-4)]GlcNAc
# Procedure, shortened: as §1
# [6] = target: Gal(b1-3)[Fuc(a1-4)]GlcNAc(b1-3)Gal(b1-3)[Fuc(a1-4)]GlcNAc
# Procedure, shortened: as §1
# [7] = target: Gal(b1-3)[Fuc(a1-4)]GlcNAc(b1-3)Gal(b1-4)GlcNAc
# Procedure, shortened: as §1
# [8] = target: Gal(b1-3)[Fuc(a1-4)]GlcNAc(b1-3)Gal(b1-4)[Fuc(a1-3)]GlcNAc
# Procedure, shortened: as §1
# [9] = target: Gal(b1-3)[GlcNAc(b1-6)]GalNAc
# Procedure, shortened: as §1
# [10] = target: Gal(b1-3)[Neu5Ac(a2-6)]GalNAc
# Procedure, shortened: as §1
# [11] = target: Gal(b1-3)[Neu5Ac(a2-6)]GlcNAc(b1-6)Gal(b1-4)Glc
# Procedure, shortened: as §1
# [12] = target: Gal(b1-3)[Neu5Ac(b2-6)]GalNAc
# Procedure, shortened: as §1
# [13] = target: Gal(b1-4)GalNAc(a1-3)[Fuc(a1-2)]Gal(b1-4)GlcNAc
# Procedure, shortened: as §1
# [14] = target: Gal(b1-4)GalNAc(b1-3)[Fuc(a1-2)]Gal(b1-4)GlcNAc
# Procedure, shortened: as §1
# Gal(b1-4)Glc = target: Gal(b1-4)Glc
# Procedure, shortened: as §1
# Gal(b1-4)Glc6S = target: Gal(b1-4)Glc6S
# Procedure, shortened: as §1
# Gal(b1-4)GlcNAc = target: Gal(b1-4)GlcNAc
# Procedure, shortened: as §1
# [15] = target: Gal(b1-4)GlcNAc(a1-6)Gal(b1-4)GlcNAc
# Procedure, shortened: as §1
# [16] = target: Gal(b1-4)GlcNAc(b1-2)Man(a1-3)[Gal(b1-4)GlcNAc(b1-2)Man(a1-6)]Man(b1-4)GlcNAc(b1-4)GlcNAc
# Procedure, shortened: as §1
# [17] = target: Gal(b1-4)GlcNAc(b1-3)Gal(b1-3)GlcNAc
# Procedure, shortened: as §1
# [18] = target: Gal(b1-4)GlcNAc(b1-3)Gal(b1-4)Glc
# Procedure, shortened: as §1
# [19] = target: Gal(b1-4)GlcNAc(b1-3)Gal(b1-4)GlcNAc
# Procedure, shortened: as §1
# [20] = target: Gal(b1-4)GlcNAc(b1-3)Gal(b1-4)GlcNAc(b1-3)Gal(b1-4)GlcNAc
# Procedure, shortened: as §1
# [21] = target: Gal(b1-4)GlcNAc(b1-3)Gal(b1-4)[Fuc(a1-3)]GlcNAc(b1-3)Gal(b1-4)[Fuc(a1-3)]GlcNAc
# Procedure, shortened: as §1
# [22] = target: Gal(b1-4)GlcNAc(b1-3)GalNAc
# Procedure, shortened: as §1
# [23] = target: Gal(b1-4)GlcNAc(b1-3)[Gal(b1-4)GlcNAc(b1-6)]Gal(b1-4)GlcNAc
# Procedure, shortened: as §1
# [24] = target: Gal(b1-4)GlcNAc(b1-3)[GlcNAc(b1-6)]Gal(b1-4)GlcNAc
# Procedure, shortened: as §1
# [25] = target: Gal(b1-4)GlcNAc(b1-6)Gal(b1-4)GlcNAc
# Procedure, shortened: as §1
# [26] = target: Gal(b1-4)GlcNAc(b1-6)Gal(b1-4)GlcNAc(b1-6)GalNAc
# Procedure, shortened: as §1
# [27] = target: Gal(b1-4)GlcNAc(b1-6)GalNAc
# Procedure, shortened: as §1
# [28] = target: Gal(b1-4)GlcNAc(b1-6)[Gal(b1-3)]GalNAc
# Procedure, shortened: as §1
# Gal3S(b1-3)GalNAc = target: Gal3S(b1-3)GalNAc
# Procedure, shortened: as §1
# Gal3S(b1-3)GlcNAc = target: Gal3S(b1-3)GlcNAc
# Procedure, shortened: as §1
# [29] = target: Gal3S(b1-3)[Fuc(a1-4)]GlcNAc
# Procedure, shortened: as §1
# Gal3S(b1-4)Glc = target: Gal3S(b1-4)Glc
# Procedure, shortened: as §1
# Gal3S(b1-4)Glc6S = target: Gal3S(b1-4)Glc6S
# Procedure, shortened: as §1
# Gal3S(b1-4)GlcNAc = target: Gal3S(b1-4)GlcNAc
# Procedure, shortened: as §1
binder,measurement,setting,value
B1,glycan array binding signal (z-score),Gal(b1-3)GlcNAc,-0.239
same,glycan array binding signal (z-score),[1],-0.284
same,glycan array binding signal (z-score),[2],-0.27
same,glycan array binding signal (z-score),[3],-0.279
same,glycan array binding signal (z-score),[4],-0.158
same,glycan array binding signal (z-score),[5],-0.199
same,glycan array binding signal (z-score),[6],-0.22
same,glycan array binding signal (z-score),[7],-0.177
same,glycan array binding signal (z-score),[8],-0.08
same,glycan array binding signal (z-score),[9],-0.123
same,glycan array binding signal (z-score),[10],-0.342
same,glycan array binding signal (z-score),[11],-0.335
same,glycan array binding signal (z-score),[12],-0.326
same,glycan array binding signal (z-score),[13],-0.214
same,glycan array binding signal (z-score),[14],-0.294
same,glycan array binding signal (z-score),Gal(b1-4)Glc,-0.341
same,glycan array binding signal (z-score),Gal(b1-4)Glc6S,-0.03
same,glycan array binding signal (z-score),Gal(b1-4)GlcNAc,0.113
same,glycan array binding signal (z-score),[15],-0.353
same,glycan array binding signal (z-score),[16],-0.302
same,glycan array binding signal (z-score),[17],-0.322
same,glycan array binding signal (z-score),[18],0.051
same,glycan array binding signal (z-score),[19],0.369
same,glycan array binding signal (z-score),[20],-0.229
same,glycan array binding signal (z-score),[21],-0.121
same,glycan array binding signal (z-score),[22],-0.095
same,glycan array binding signal (z-score),[23],-0.254
same,glycan array binding signal (z-score),[24],-0.254
same,glycan array binding signal (z-score),[25],-0.164
same,glycan array binding signal (z-score),[26],-0.275
same,glycan array binding signal (z-score),[27],-0.152
same,glycan array binding signal (z-score),[28],-0.331
same,glycan array binding signal (z-score),Gal3S(b1-3)GalNAc,0.428
same,glycan array binding signal (z-score),Gal3S(b1-3)GlcNAc,0.05
same,glycan array binding signal (z-score),[29],0.046
same,glycan array binding signal (z-score),Gal3S(b1-4)Glc,-0.322
same,glycan array binding signal (z-score),Gal3S(b1-4)Glc6S,0.564
same,glycan array binding signal (z-score),Gal3S(b1-4)GlcNAc,0.127
